Experimental findings from article PMC5892938 are described below.

The other results are listed elsewhere or left out. At the low end of the ranking the order means little.

This test has as its target GST-SBP-SLBP (stem-loop binding protein) (UniProt Q14493). The test can be described thus: targeted RNA Bind-n-Seq.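 Note: DESeq read counts versus GST-SBP nonspecific binding control pulldown.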 The settings on record: RBNS binding buffer: 25 mM Tris pH 7.5, 150 mM KCl, 3 mM MgCl2, 0.1% Tween, 0.5 mg/mL BSA, 1 mM DTT; 27 nM protein, 750 pM RNA pool; temperature not stated; high values mean tight binding.
On to “GGUCACGUCUCAAUCAACUCAUUUUCAGGAGUUUCCUCCUGUUUUUUCAACAGCUCGCAGUCAAG”, for which the binding signal (log2 fold change) is -0.116. For “GGUCACGUCUCAAUCAACUCAGUCUCAGGAGUUUACUCCUGCAAUUUCAACAGCUCGCAGUCAAG”, the binding signal (log2 fold change) was -0.0631. For “GGUCACGUCUCAAUCAACUCUCUAGAGGGGGGGAAAACCCCUUUACCCUCGUCCUCAACAGCUCGCAGUCAAG”, the binding signal (log2 fold change) stood at 0.0577. Take “GGUCACGUCUCAAUCAACUCAUACGAGGGGGGGAAAACCCCUUUACCCUCAAUAUCAACAGCUCGCAGUCAAG”: the binding signal (log2 fold change) was found to be 0.313.

For “GGUCACGUCUCAAUCAACUCAUCGCCCAGGGAAAACCCUGGUUAUCUCAACAGCUCGCAGUCAAG”, the binding signal (log2 fold change) is -0.0479.

With “GGUCACGUCUCAAUCAACUCAAUCUCAGGAGUUUACUCCUGCAUACUCAACAGCUCGCAGUCAAG”, the binding signal (log2 fold change) was -0.0996.

As for “GGUCACGUCUCAAUCAACUCUCACGAGGGGGGGAAAACCCCUUUACCCUCAUAUUCAACAGCUCGCAGUCAAG”, the binding signal (log2 fold change) was -0.504. “GGUCACGUCUCAAUCAACUCAUCCUCCAGGGAAAGCCCUGGUUAACUCAACAGCUCGCAGUCAAG”: the binding signal (log2 fold change) was -0.0746. As for “GGUCACGUCUCAAUCAACUCAACGGAGGGGGGGAAAACCCCUUUACCCUCAUUAUCAACAGCUCGCAGUCAAG”, the binding signal (log2 fold change) is -0.223. Under “GGUCACGUCUCAAUCAACUCUAUCCCAGGAGUUUACUCCUGCUAAUUCAACAGCUCGCAGUCAAG” stands -0.0151; under “GGUCACGUCUCAAUCAACUCAUCUCCAGGAGUUUCCUCCUGUUAUUUCAACAGCUCGCAGUCAAG”, -0.0525. Under “GGUCACGUCUCAAUCAACUCUCCAGAGGGGGGGAAAACCCCUUUACCCUCAAUAUCAACAGCUCGCAGUCAAG” stands -0.453; under “GGUCACGUCUCAAUCAACUCUUUUCCCAGGGAAAUCCCUGGUAUUCUCAACAGCUCGCAGUCAAG”, 0.21. With “GGUCACGUCUCAAUCAACUCUAUUCCAGGAGUUUCCUCCUGCAUUUUCAACAGCUCGCAGUCAAG”, the binding signal (log2 fold change) is -0.0764. Regarding “GGUCACGUCUCAAUCAACUCUAUGUCAGGAGUUUUCUCCUGCUUUCUCAACAGCUCGCAGUCAAG”, the binding signal (log2 fold change) is 0.0093. For “GGUCACGUCUCAAUCAACUCCAUCGAGGGGGGGAAAACCCCUUUACCCUCCACAUCAACAGCUCGCAGUCAAG”, the binding signal (log2 fold change) turned out to be 0.133. As for “GGUCACGUCUCAAUCAACUCAUCCUCCAGGGAAAACCCUGGCUAUCUCAACAGCUCGCAGUCAAG”, the binding signal (log2 fold change) is -0.0404. Under “GGUCACGUCUCAAUCAACUCAUUUUCAGGAGUUUUCUCCUGCUUAUUCAACAGCUCGCAGUCAAG” stands 0.0365. Under “GGUCACGUCUCAAUCAACUCUUCUCCCAGGGAAAUCCCUGGUAAUGUCAACAGCUCGCAGUCAAG” stands -0.194.

On to “GGUCACGUCUCAAUCAACUCAAUUUCAGGAGUUUCCUCCUGCAAUCUCAACAGCUCGCAGUCAAG”, for which the binding signal (log2 fold change) was 0.0787. As for “GGUCACGUCUCAAUCAACUCAUUCGAGGGGGGGAAAACCCCUUUACCCUCAAUUUCAACAGCUCGCAGUCAAG”, the binding signal (log2 fold change) is -0.107. For “GGUCACGUCUCAAUCAACUCUUUUUCCAGGGAAAACCCUGGCUUUUUCAACAGCUCGCAGUCAAG”, the binding signal (log2 fold change) is -0.0664. Take “GGUCACGUCUCAAUCAACUCAAUUCCAGGAGUUUGCUCCUGCAUUUUCAACAGCUCGCAGUCAAG”: the binding signal (log2 fold change) amounted to 0.0103. For the sequence “GGUCACGUCUCAAUCAACUCUUUCUCAGGAGUUUACUCCUGCAUUUUCAACAGCUCGCAGUCAAG”, the binding signal (log2 fold change) worked out at 0.162. For the sequence “GGUCACGUCUCAAUCAACUCUUUUCCCAGGGAAAACCCUGGUUUUUUCAACAGCUCGCAGUCAAG”, the binding signal (log2 fold change) is 0.0739. Take “GGUCACGUCUCAAUCAACUCAAGUCCAGGAGUUUCCUCCUGUUAUUUCAACAGCUCGCAGUCAAG”: the binding signal (log2 fold change) was 0.0242. Turning to “GGUCACGUCUCAAUCAACUCAAUUCCAGGAGUUUACUCCUGCUUUUUCAACAGCUCGCAGUCAAG”, the binding signal (log2 fold change) worked out at 0.0374.

For “GGUCACGUCUCAAUCAACUCUUCCGCAGGAGUUUCCUCCUGGUAUCUCAACAGCUCGCAGUCAAG”, the binding signal (log2 fold change) is -0.026. Take “GGUCACGUCUCAAUCAACUCAACUCCAGGAGUUUACUCCUGCAUACUCAACAGCUCGCAGUCAAG”: the binding signal (log2 fold change) came to 0.111. In the case of “GGUCACGUCUCAAUCAACUCCUCAGAGGGGGGGAAAACCCCUUUGCCCUCCAAUUCAACAGCUCGCAGUCAAG”, the binding signal (log2 fold change) is -0.091. Turning to “GGUCACGUCUCAAUCAACUCUUCCCCCAGGGAAAUCCCUGGCAUUUUCAACAGCUCGCAGUCAAG”, the binding signal (log2 fold change) was 0.105. Consider “GGUCACGUCUCAAUCAACUCUUUUUCAGGAGUUUCCUCCUGCAUUCUCAACAGCUCGCAGUCAAG”, for which the binding signal (log2 fold change) was found to be 0.0298. Regarding “GGUCACGUCUCAAUCAACUCUUACGAGGGGGGGAAAACCCCUUUGCCCUCAUUAUCAACAGCUCGCAGUCAAG”, the binding signal (log2 fold change) was -0.0983.

For “GGUCACGUCUCAAUCAACUCAAUUUCAGGAGUUUACUCCUGCUAAGUCAACAGCUCGCAGUCAAG”, the binding signal (log2 fold change) is -0.0766. For “GGUCACGUCUCAAUCAACUCAUUAGAGGGGGGGAAAACCCCUUUACCCUCAUCGUCAACAGCUCGCAGUCAAG”, the binding signal (log2 fold change) is -0.446. “GGUCACGUCUCAAUCAACUCAUUUUCAGGAGUUUCCUCCUGCUAUUUCAACAGCUCGCAGUCAAG”: the binding signal (log2 fold change) stood at 0.246.

Consider “GGUCACGUCUCAAUCAACUCUUUUUCCAGGGAAAACCCUGGCAAAUUCAACAGCUCGCAGUCAAG”, for which the binding signal (log2 fold change) was determined as 0.0713. On to “GGUCACGUCUCAAUCAACUCAUCGUCAGGAGUUUUCUCCUGUAAACUCAACAGCUCGCAGUCAAG”, for which the binding signal (log2 fold change) amounted to 0.313.

Regarding “GGUCACGUCUCAAUCAACUCUUCUCCCAGGGAAAGCCCUGGUAAAUUCAACAGCUCGCAGUCAAG”, the binding signal (log2 fold change) is -0.279.

“GGUCACGUCUCAAUCAACUCUUCUUCAGGAGUUUUCUCCUGUUUACUCAACAGCUCGCAGUCAAG”: the binding signal (log2 fold change) turned out to be 0.0488. With “GGUCACGUCUCAAUCAACUCUUCUCCCAGGGAAAUCCCUGGUAUACUCAACAGCUCGCAGUCAAG”, the binding signal (log2 fold change) was found to be 0.329.

As for “GGUCACGUCUCAAUCAACUCAGUCUCAGGAGUUUUCUCCUGCAAUUUCAACAGCUCGCAGUCAAG”, the binding signal (log2 fold change) was -0.0824. Regarding “GGUCACGUCUCAAUCAACUCUAUAGAGGGGGGGAAAACCCCUUUGCCCUCAAAAUCAACAGCUCGCAGUCAAG”, the binding signal (log2 fold change) was -0.0818. As for “GGUCACGUCUCAAUCAACUCUUCCUCAGGAGUUUACUCCUGUUAUUUCAACAGCUCGCAGUCAAG”, the binding signal (log2 fold change) stood at 0.0306. Take “GGUCACGUCUCAAUCAACUCAAAAGAGGGGGGGAAAACCCCUUUGCCCUCAAUUUCAACAGCUCGCAGUCAAG”: the binding signal (log2 fold change) came to 0.262. Under “GGUCACGUCUCAAUCAACUCAUCGCCAGGAGUUUACUCCUGCUAUUUCAACAGCUCGCAGUCAAG” stands 0.00946. In the case of “GGUCACGUCUCAAUCAACUCUUCGCCCAGGGAAAACCCUGGUAAUCUCAACAGCUCGCAGUCAAG”, the binding signal (log2 fold change) is -0.0666.

Turning to “GGUCACGUCUCAAUCAACUCAAUCCCCAGGGAAAACCCUGGCAAUCUCAACAGCUCGCAGUCAAG”, the binding signal (log2 fold change) amounted to 0.0836. As to “GGUCACGUCUCAAUCAACUCAAUUCCCAGGGAAAACCCUGGCUAUCUCAACAGCUCGCAGUCAAG”, the binding signal (log2 fold change) was -0.144. For “GGUCACGUCUCAAUCAACUCCCACGAGGGGGGGAAAACCCCUUUACCCUCAUCCUCAACAGCUCGCAGUCAAG”, the binding signal (log2 fold change) is -0.409. As to “GGUCACGUCUCAAUCAACUCAUUUUCAGGAGUUUCCUCCUGUAUAUUCAACAGCUCGCAGUCAAG”, the binding signal (log2 fold change) stood at 0.0182. Under “GGUCACGUCUCAAUCAACUCUAUCUCCAGGGAAAACCCUGGUUUAUUCAACAGCUCGCAGUCAAG” stands -0.0687; under “GGUCACGUCUCAAUCAACUCUCAAGAGGGGGGGAAAACCCCUUUACCCUCACUAUCAACAGCUCGCAGUCAAG”, 0.187. “GGUCACGUCUCAAUCAACUCCUUCGAGGGGGGGAAAACCCCUUUACCCUCACACUCAACAGCUCGCAGUCAAG”: the binding signal (log2 fold change) was -0.346. Under “GGUCACGUCUCAAUCAACUCAUCCUCAGGAGUUUCCUCCUGUUUACUCAACAGCUCGCAGUCAAG” stands -0.015.

As for “GGUCACGUCUCAAUCAACUCACUAGAGGGGGGGAAAACCCCUUUACCCUCCUUAUCAACAGCUCGCAGUCAAG”, the binding signal (log2 fold change) is -0.131. Regarding “GGUCACGUCUCAAUCAACUCAGUCCCAGGAGUUUCCUCCUGCAAUCUCAACAGCUCGCAGUCAAG”, the binding signal (log2 fold change) is -0.072. On to “GGUCACGUCUCAAUCAACUCAUUCCCAGGAGUUUCCUCCUGCAAUUUCAACAGCUCGCAGUCAAG”, for which the binding signal (log2 fold change) was -0.121. As for “GGUCACGUCUCAAUCAACUCAUUCCCAGGAGUUUCCUCCUGCUAACUCAACAGCUCGCAGUCAAG”, the binding signal (log2 fold change) was 0.178. Under “GGUCACGUCUCAAUCAACUCUACUCCCAGGGAAAUCCCUGGCUAUCUCAACAGCUCGCAGUCAAG” stands -0.071; under “GGUCACGUCUCAAUCAACUCAACUUCAGGAGUUUGCUCCUGCUUACUCAACAGCUCGCAGUCAAG”, 0.052; under “GGUCACGUCUCAAUCAACUCGUCUUCAGGAGUUUCCUCCUGCAAUUUCAACAGCUCGCAGUCAAG”, 0.211. Under “GGUCACGUCUCAAUCAACUCUUUUCCAGGAGUUUUCUCCUGUUAAUUCAACAGCUCGCAGUCAAG” stands -0.0553.

With “GGUCACGUCUCAAUCAACUCUACUUCCAGGGAAAACCCUGGCUAACUCAACAGCUCGCAGUCAAG”, the binding signal (log2 fold change) was -0.00109. Under “GGUCACGUCUCAAUCAACUCUUCUUCCAGGGAAACCCCUGGUUAACUCAACAGCUCGCAGUCAAG” stands 0.128; under “GGUCACGUCUCAAUCAACUCCAUGGAGGGGGGGAAAACCCCUUUACCCUCAAAUUCAACAGCUCGCAGUCAAG”, -0.395; under “GGUCACGUCUCAAUCAACUCUAUCCCCAGGGAAACCCCUGGCUAUCUCAACAGCUCGCAGUCAAG”, -0.145.

Take “GGUCACGUCUCAAUCAACUCUUUUCCAGGAGUUUUCUCCUGCAAAUUCAACAGCUCGCAGUCAAG”: the binding signal (log2 fold change) is -0.0619.

Regarding “GGUCACGUCUCAAUCAACUCUUCUUCAGGAGUUUUCUCCUGCUAUCUCAACAGCUCGCAGUCAAG”, the binding signal (log2 fold change) came to 0.125. Regarding “GGUCACGUCUCAAUCAACUCUAUCUCCAGGGAAAACCCUGGCAAAUUCAACAGCUCGCAGUCAAG”, the binding signal (log2 fold change) amounted to 0.157. Take “GGUCACGUCUCAAUCAACUCAUCUCCCAGGGAAACCCCUGGUAAUCUCAACAGCUCGCAGUCAAG”: the binding signal (log2 fold change) was 0.0397. For the sequence “GGUCACGUCUCAAUCAACUCUUUCUCCAGGGAAAACCCUGGCUAUCUCAACAGCUCGCAGUCAAG”, the binding signal (log2 fold change) is 0.0916.

Take “GGUCACGUCUCAAUCAACUCUUUCUCAGGAGUUUCCUCCUGCAAUUUCAACAGCUCGCAGUCAAG”: the binding signal (log2 fold change) was determined as 0.248. In the case of “GGUCACGUCUCAAUCAACUCAACUCCCAGGGAAAUCCCUGGCAAAUUCAACAGCUCGCAGUCAAG”, the binding signal (log2 fold change) stood at 0.0863.
